Results on 153 variants are retold here after a collection of fitness landscapes (doi:10.1016/j.celrep.2020.107928).

The chains are these.
B1: Caulobacter ParB omega fusion; a variant is named by its letters at X, in order, B8GW30 (parent)
chain: MESVVVGEPGMSEGRRGLGRGLSALLGEVDAAPAQAPGEQLGGSREAPIEILQRNPDQPRRTFREEDLEDLSNSIREKGVLQPILVRPSPDTAGEYQIVAGERAWRAAQRAGLKTVPIMVRELDDLAVLEIGIIENVQRADLNVLEEALSYKVLMEKFERTQENIAQTIGKSXSHVANXMRLLXLPDEVQSYLVSGELTAXHARAIAAAADPVALAKQIIEGGLSVRETEALARKAPNLSAGKSKGGRPPRVKDTDTQALESDLSSVLGLDVSIDHRGSTGTLTITYATLEQLDDLCNRLTRGI

Over roughly 81,000 sequences, “one-hybrid fitness for binding parS DNA” has its median near -0.17; the highest 2% begin near 0.51. The list shows a part of the results.

The variants in this assay derive from B1. Briefly: one-hybrid fitness for binding parS DNA (scaled: cognate 1, non-cognate 0); higher = stronger binding. The conditions noted are these: with parS DNA site. In outline:
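Fitness here means the log change in variant-to-wild-type read ratio between plasmids sequenced before and after selection. That scale was set so cognate equals 1 and non-cognate equals 0. The selection was a bacterial one-hybrid screen of Caulobacter ParB libraries, four specificity codons randomised, in E. coli USO carrying a HIS3 reporter with the site 19 bp from the promoter, grown 48 hours at 37°C on M9-minus-histidine with 0.1 mM IPTG and 5 mM 3-AT.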
QCSA: the “one-hybrid fitness for binding parS DNA” value was at most 0.2.

Take QMNP: the “one-hybrid fitness for binding parS DNA” value is at most 0.2.

In the case of NNVM, the “one-hybrid fitness for binding parS DNA” value was at most 0.2.

With QIYY, the “one-hybrid fitness for binding parS DNA” value was at most 0.2.

As to PDHS, the “one-hybrid fitness for binding parS DNA” value is at most 0.2.

Regarding WLFE, the “one-hybrid fitness for binding parS DNA” value is at most 0.2.

Take VLKE: the “one-hybrid fitness for binding parS DNA” value was at most 0.2.

With QFGT, the “one-hybrid fitness for binding parS DNA” value is at most 0.2.

As for ANPK, the “one-hybrid fitness for binding parS DNA” value is at most 0.2.

QCNK: the “one-hybrid fitness for binding parS DNA” value was at most 0.2.

On to RPMM, for which the “one-hybrid fitness for binding parS DNA” value was at most 0.2.

For the variant QIFC, the “one-hybrid fitness for binding parS DNA” value is at most 0.2.

On to QLCH, for which the “one-hybrid fitness for binding parS DNA” value is at most 0.2.

For DFMV, the “one-hybrid fitness for binding parS DNA” value was at most 0.2.

As for NARS, the “one-hybrid fitness for binding parS DNA” value is at most 0.2.

As for LLPC, the “one-hybrid fitness for binding parS DNA” value was at most 0.2.

In the case of NRAR, the “one-hybrid fitness for binding parS DNA” value is at most 0.2.

As for WRDS, the “one-hybrid fitness for binding parS DNA” value was at most 0.2.

Turning to HDPG, the “one-hybrid fitness for binding parS DNA” value is at most 0.2.

For TLLG, the “one-hybrid fitness for binding parS DNA” value was at most 0.2.

Consider MSHR, for which the “one-hybrid fitness for binding parS DNA” value is at most 0.2.

As to NTME, the “one-hybrid fitness for binding parS DNA” value is at most 0.2.

Take AGDG: the “one-hybrid fitness for binding parS DNA” value is at most 0.2.

For the variant GMIV, the “one-hybrid fitness for binding parS DNA” value is at most 0.2.

For MTDR, the “one-hybrid fitness for binding parS DNA” value is at most 0.2.

As for VTDS, the “one-hybrid fitness for binding parS DNA” value was at most 0.2.

For the variant EIPR, the “one-hybrid fitness for binding parS DNA” value was at most 0.2.

WMFG: the “one-hybrid fitness for binding parS DNA” value was at most 0.2.

Consider VDGS, for which the “one-hybrid fitness for binding parS DNA” value is at most 0.2.

In the case of DRKA, the “one-hybrid fitness for binding parS DNA” value was at most 0.2.

As for TMHA, the “one-hybrid fitness for binding parS DNA” value is at most 0.2.

Regarding HGHG, the “one-hybrid fitness for binding parS DNA” value is at most 0.2.

Regarding RITR, the “one-hybrid fitness for binding parS DNA” value is at most 0.2.

Consider NVYA, for which the “one-hybrid fitness for binding parS DNA” value is at most 0.2.

Consider PDEA, for which the “one-hybrid fitness for binding parS DNA” value was at most 0.2.

Regarding PLHL, the “one-hybrid fitness for binding parS DNA” value is at most 0.2.

Take DRFT: the “one-hybrid fitness for binding parS DNA” value is at most 0.2.

Consider GAMT, for which the “one-hybrid fitness for binding parS DNA” value was at most 0.2.

SRNY: the “one-hybrid fitness for binding parS DNA” value is at most 0.2.

With CPKI, the “one-hybrid fitness for binding parS DNA” value was at most 0.2.

In the case of AETE, the “one-hybrid fitness for binding parS DNA” value was at most 0.2.

For the variant NMTF, the “one-hybrid fitness for binding parS DNA” value is at most 0.2.

Turning to GPQM, the “one-hybrid fitness for binding parS DNA” value is at most 0.2.

Take CRSW: the “one-hybrid fitness for binding parS DNA” value is at most 0.2.

WNNC: the “one-hybrid fitness for binding parS DNA” value is at most 0.2.

On to GMRV, for which the “one-hybrid fitness for binding parS DNA” value was at most 0.2.

RIMH: the “one-hybrid fitness for binding parS DNA” value was found to be 0.264.

In the case of RTWY, the “one-hybrid fitness for binding parS DNA” value is 0.521.

MIVG: the “one-hybrid fitness for binding parS DNA” value was at most 0.2.

As to RYIQ, the “one-hybrid fitness for binding parS DNA” value is at most 0.2.

CFRS: the “one-hybrid fitness for binding parS DNA” value is at most 0.2.

On to HYQN, for which the “one-hybrid fitness for binding parS DNA” value was at most 0.2.

As to PDGS, the “one-hybrid fitness for binding parS DNA” value was at most 0.2.

For RTWA, the “one-hybrid fitness for binding parS DNA” value was found to be 0.626.

In the case of IEKR, the “one-hybrid fitness for binding parS DNA” value was at most 0.2.

Take HCYT: the “one-hybrid fitness for binding parS DNA” value was at most 0.2.

For the variant PNDK, the “one-hybrid fitness for binding parS DNA” value was at most 0.2.

On to PAQA, for which the “one-hybrid fitness for binding parS DNA” value is at most 0.2.

On to QTKS, for which the “one-hybrid fitness for binding parS DNA” value is at most 0.2.

On to MRKS, for which the “one-hybrid fitness for binding parS DNA” value is at most 0.2.

On to LYEV, for which the “one-hybrid fitness for binding parS DNA” value is at most 0.2.

On to AAGG, for which the “one-hybrid fitness for binding parS DNA” value is at most 0.2.

PDSP: the “one-hybrid fitness for binding parS DNA” value is at most 0.2.

Take VAGR: the “one-hybrid fitness for binding parS DNA” value was at most 0.2.

Regarding HAYR, the “one-hybrid fitness for binding parS DNA” value is at most 0.2.

Turning to SWQR, the “one-hybrid fitness for binding parS DNA” value is at most 0.2.

Regarding DSCR, the “one-hybrid fitness for binding parS DNA” value is at most 0.2.

With SKNW, the “one-hybrid fitness for binding parS DNA” value is at most 0.2.

In the case of FNSV, the “one-hybrid fitness for binding parS DNA” value was at most 0.2.

Turning to RVYC, the “one-hybrid fitness for binding parS DNA” value is 0.991.

As for AYCR, the “one-hybrid fitness for binding parS DNA” value is at most 0.2.

For LCHI, the “one-hybrid fitness for binding parS DNA” value was at most 0.2.

With HSGS, the “one-hybrid fitness for binding parS DNA” value is at most 0.2.

As to QSSE, the “one-hybrid fitness for binding parS DNA” value was at most 0.2.

For the variant DLCS, the “one-hybrid fitness for binding parS DNA” value was at most 0.2.

YMQL: the “one-hybrid fitness for binding parS DNA” value is at most 0.2.

On to PHWG, for which the “one-hybrid fitness for binding parS DNA” value was at most 0.2.

As to NVPR, the “one-hybrid fitness for binding parS DNA” value is at most 0.2.

Consider GSER, for which the “one-hybrid fitness for binding parS DNA” value was at most 0.2.

As to VNFP, the “one-hybrid fitness for binding parS DNA” value is at most 0.2.

With PEYV, the “one-hybrid fitness for binding parS DNA” value is at most 0.2.

On to YANC, for which the “one-hybrid fitness for binding parS DNA” value is at most 0.2.

Regarding LGHL, the “one-hybrid fitness for binding parS DNA” value was at most 0.2.

For the variant VHMT, the “one-hybrid fitness for binding parS DNA” value was at most 0.2.

PVWV: the “one-hybrid fitness for binding parS DNA” value is at most 0.2.

In the case of APFR, the “one-hybrid fitness for binding parS DNA” value was at most 0.2.

Turning to ERMC, the “one-hybrid fitness for binding parS DNA” value is at most 0.2.

On to CPPC, for which the “one-hybrid fitness for binding parS DNA” value is at most 0.2.

For LQRF, the “one-hybrid fitness for binding parS DNA” value was at most 0.2.

For RCWD, the “one-hybrid fitness for binding parS DNA” value is 0.242.

For the variant IKWS, the “one-hybrid fitness for binding parS DNA” value was at most 0.2.

With YPHS, the “one-hybrid fitness for binding parS DNA” value was at most 0.2.

For the variant KRGQ, the “one-hybrid fitness for binding parS DNA” value was at most 0.2.

Turning to RLVN, the “one-hybrid fitness for binding parS DNA” value came out at 0.4.

With AWTA, the “one-hybrid fitness for binding parS DNA” value is at most 0.2.

For the variant VLRK, the “one-hybrid fitness for binding parS DNA” value was at most 0.2.

LNET: the “one-hybrid fitness for binding parS DNA” value was at most 0.2.

In the case of GEMI, the “one-hybrid fitness for binding parS DNA” value was at most 0.2.

IVQV: the “one-hybrid fitness for binding parS DNA” value is at most 0.2.

As for HELF, the “one-hybrid fitness for binding parS DNA” value is at most 0.2.

For the variant KMFR, the “one-hybrid fitness for binding parS DNA” value is at most 0.2.

In the case of RWQG, the “one-hybrid fitness for binding parS DNA” value was 0.741.

On to QQYK, for which the “one-hybrid fitness for binding parS DNA” value was at most 0.2.

In the case of PRMF, the “one-hybrid fitness for binding parS DNA” value is at most 0.2.

For the variant CTSE, the “one-hybrid fitness for binding parS DNA” value was at most 0.2.

GYQV: the “one-hybrid fitness for binding parS DNA” value is at most 0.2.

With RHPW, the “one-hybrid fitness for binding parS DNA” value is at most 0.2.

Take KWPN: the “one-hybrid fitness for binding parS DNA” value is at most 0.2.

Turning to ATHL, the “one-hybrid fitness for binding parS DNA” value is at most 0.2.

Consider NYEV, for which the “one-hybrid fitness for binding parS DNA” value was at most 0.2.

On to RSFQ, for which the “one-hybrid fitness for binding parS DNA” value was at most 0.2.

In the case of HKLN, the “one-hybrid fitness for binding parS DNA” value was at most 0.2.

As to DSNN, the “one-hybrid fitness for binding parS DNA” value is at most 0.2.

In the case of KRSP, the “one-hybrid fitness for binding parS DNA” value is at most 0.2.

With DLAE, the “one-hybrid fitness for binding parS DNA” value was at most 0.2.

For the variant HRAE, the “one-hybrid fitness for binding parS DNA” value was at most 0.2.

On to SPLC, for which the “one-hybrid fitness for binding parS DNA” value was at most 0.2.

Regarding IIHG, the “one-hybrid fitness for binding parS DNA” value is at most 0.2.

For RMGY, the “one-hybrid fitness for binding parS DNA” value worked out at 0.459.

MVTQ: the “one-hybrid fitness for binding parS DNA” value was at most 0.2.

Regarding EASR, the “one-hybrid fitness for binding parS DNA” value was at most 0.2.

As for RYLQ, the “one-hybrid fitness for binding parS DNA” value was at most 0.2.

Consider WRFL, for which the “one-hybrid fitness for binding parS DNA” value is at most 0.2.

DTCC: the “one-hybrid fitness for binding parS DNA” value was at most 0.2.

Consider QSFM, for which the “one-hybrid fitness for binding parS DNA” value was at most 0.2.

On to QDAN, for which the “one-hybrid fitness for binding parS DNA” value is at most 0.2.

As to YNTR, the “one-hybrid fitness for binding parS DNA” value was at most 0.2.

PGAR: the “one-hybrid fitness for binding parS DNA” value is at most 0.2.

For the variant MQIS, the “one-hybrid fitness for binding parS DNA” value was at most 0.2.

Take FGIS: the “one-hybrid fitness for binding parS DNA” value is at most 0.2.

As for TPIF, the “one-hybrid fitness for binding parS DNA” value is at most 0.2.

As to ERRA, the “one-hybrid fitness for binding parS DNA” value was at most 0.2.

Take QDPA: the “one-hybrid fitness for binding parS DNA” value was at most 0.2.

Turning to VVKS, the “one-hybrid fitness for binding parS DNA” value is at most 0.2.

Take QCEL: the “one-hybrid fitness for binding parS DNA” value was at most 0.2.

Turning to GTPQ, the “one-hybrid fitness for binding parS DNA” value was at most 0.2.

RKAY: the “one-hybrid fitness for binding parS DNA” value worked out at 0.378.

For the variant TDEQ, the “one-hybrid fitness for binding parS DNA” value is at most 0.2.

On to KQRA, for which the “one-hybrid fitness for binding parS DNA” value is at most 0.2.

Turning to AHSQ, the “one-hybrid fitness for binding parS DNA” value is at most 0.2.

For YWRR, the “one-hybrid fitness for binding parS DNA” value was at most 0.2.

On to TQHG, for which the “one-hybrid fitness for binding parS DNA” value was at most 0.2.

Turning to TFLE, the “one-hybrid fitness for binding parS DNA” value is at most 0.2.

As to QHAA, the “one-hybrid fitness for binding parS DNA” value is at most 0.2.

For TTRP, the “one-hybrid fitness for binding parS DNA” value was at most 0.2.

In the case of QCIC, the “one-hybrid fitness for binding parS DNA” value is at most 0.2.

Take SLCQ: the “one-hybrid fitness for binding parS DNA” value is at most 0.2.

For the variant QPNC, the “one-hybrid fitness for binding parS DNA” value was at most 0.2.

For AVWV, the “one-hybrid fitness for binding parS DNA” value is at most 0.2.

As to RYCW, the “one-hybrid fitness for binding parS DNA” value is at most 0.2.

In the case of INTG, the “one-hybrid fitness for binding parS DNA” value was at most 0.2.

Take HLRT: the “one-hybrid fitness for binding parS DNA” value is at most 0.2.

Turning to ANSF, the “one-hybrid fitness for binding parS DNA” value is at most 0.2.
